According to the RNAGym collection of RNA variant scans (doi:10.7554/elife.90254):
Read counts are not given, so values of variants with three or more changes are uncertain.

B1: LINE1-mini (parent)
chain: GGCAGAGCUCAACACAGCGUGGCAAAGUGGCUGUGGCUAGACUGCC

Variants of: B1
Test: self-cleavage, relative activity (ratio to wild type); higher = more cleavage; in vitro, sequencing; the parent is a self-cleaving ribozyme

Variant | self-cleavage
G29U U38C C46U | 1.48
C15G G19A G29A C31A | 0.02
C23U G29U C37A A41C C45U | 0.01
C3U A4U C10G C15G A25U A39U | 0.02
G5C G7U U43A | 0.35
G2A A6C G29A C37G A41U C45A | 0.31
A4C A12U C18G G19U C23U C46G | 0.01
G1U G21C C46A | 0.32
A12C G19U C45U | 0.01
G5A U28A C31U G36A | 0.01
G2U C8G U28C | 0.01
C15U C18G G21A G30A C37U | 0.08
A14U G17U G33U | 0.03
C15U G19A A24C | 0.21
U9G C23U U28C | 0.04
G2U C8A C10A G21C A41G G44C | 0.01
A14C A16C G22U | 0.11
G2A C3U A11C G27U G33C C42A C46G | 0.02
C10G A12U A24C C42A | 0.01
G1C A11C U32G | 0.01
C3G U9A A14G G21U C37A U38A | 0.54

Variant | self-cleavage
C10U C13U A16U A26U G30C U32A | 0.05
C3A A11G A14C | 0.02
C3A C31U G36A U38A | 0.51
A4U C10A C23G A39U | 0.04
C18G U20G A25U G33C G35U | 0.01
C13A G17U G27U | 0.18
C3A C10U A25G C31A | 0.04
A6U C10A G19C | 0.02
G1C A11C U20G U38A | 0
G7A A16U U34G | 0.12
A4C U9G C46U | 0.03
U9A A14G A24U U28C G36A C37U | 0.07
A4C G22A U34A | 0.03
C10A U28G A41U | 0.01
G19A U34G C37A | 0.05
G2C C31G G33C C37A | 0.05
G7U C42A C45U | 0.1
C3A C10A G40A C46A | 0.02
G2U C23U G33C | 0.03
A12C C42G C46U | 0
G22U G33A C42G | 0.85

Variant | self-cleavage
G5U C10A U43C | 0.04
C13A C18A A26G G30U U34G G44U | 0
C31A U32C G44A | 0.02
A4G G22A G29A C45A | 0.07
G19C U20A C42A C46A | 1.03
C18A A26C C42U | 0.1
C8U C18A G21A C46U | 0.64
C10G G21U G30U A41U | 0.04
G27C U32A G36U | 0.04
G2C A26U G44A | 0.15
C18G G22C G30A | 0.87
G7C G17C C37U | 0.04
A11U G22A G36A | 0.02
G1U C15G G17U C37G | 0
C10G A41G C46G | 0.03
C8G C18G G30C | 0.03
C3A A4U C18A | 0.1
A4G G17U C23A G29A A39U | 0.1
G21U G22U A39U | 2.52
G19U A24G A26C A39U A41G | 0.09
A6G G17A U20C A26G G29A | 0.04

Variant | self-cleavage
C3G U9C G22C U43A | 0.02
G2U U9C G17C G27U | 0
C3U A4U C15A A24C | 0.03
A6U C10G G27U C31U A41C | 0.02
A16C C42A G44C | 0.03
C3U C31G G33C | 0.01
G2A A14G C18U G22C A24U G35A U38G | 0.37
A4G A26G A39U | 0.39
C18U G33A G40A | 0.01
C8G U20C G30A U38C G44A | 0.01
A4C C18A G22C | 0.09
G5U U32G U43A | 0.03
G1A G22A A25U A26C | 0.88
G2U A11G A26U | 0.02
U9G G29C G33C G36A | 0.01
G21A G36A G44A | 0.11
G5U G27U G33U G35C C46U | 0.03
G2U A11U C18U G44U | 0.02
C23U A25G G33C G36C G44C | 0.01
G5C C23U C37A | 0.09
